The values that follow come from the antibiotic and cytotoxicity screens of Wong et al. (2023).

Molecules are shown by their SMILES. This is one part of the list.

The test system of the test is HSkMC (human skeletal muscle cells). Briefly: cytotoxicity call (relative viability < 0.9). To be noted: 10 µM.
Consider `CN1CCCCC[C@@H]1C(=O)O`, for which the cytotoxicity call was “inactive”.

As to `C[C@H]1CN([C@@H](C)CO)C(=O)c2cccc(NC(=O)Nc3ccc4c(c3)OCO4)c2O[C@H]1CN(C)C(=O)Nc1ccc(C(F)(F)F)cc1`, the cytotoxicity call is “inactive”.

For `C[C@@H]1CCCCO[C@H](CN(C)C(=O)Nc2cccc3ccccc23)[C@@H](C)CN([C@H](C)CO)C(=O)c2cc(NC(=O)c3ccccc3)ccc2O1`, the cytotoxicity call was “inactive”.

As to `C[C@@H]1CN([C@@H](C)CO)S(=O)(=O)c2ccc(C3=CCCC3)cc2O[C@H]1CN(C)C(=O)C1CCOCC1`, the cytotoxicity call is “inactive”.

As to `Cc1noc(C)c1S(=O)(=O)N(C)C[C@H]1Oc2ccc(NC(=O)CCN3CCOCC3)cc2CC(=O)N([C@H](C)CO)C[C@H]1C`, the cytotoxicity call is “inactive”.

For `C[C@@H]1CCCCO[C@@H](CN(C)C(=O)Nc2ccc(C(F)(F)F)cc2)[C@H](C)CN([C@@H](C)CO)C(=O)c2cc(NS(=O)(=O)c3cccs3)ccc2O1`, the cytotoxicity call is “inactive”.

For the molecule `C[C@H]1CN([C@@H](C)CO)C(=O)Cc2cc(NS(C)(=O)=O)ccc2O[C@@H]1CN(C)S(=O)(=O)c1cccs1`, the cytotoxicity call is “inactive”.

As for `Cc1[nH]c(=O)[nH]c(=O)c1S(=O)(=O)N1CCC(C(=O)NCCC(C)C)CC1`, the cytotoxicity call was “inactive”.

Consider `O=C(NCCN1CCOCC1)[C@]1(CCS(=O)(=O)c2ccccc2)N=C(c2ccc(OCCCO)cc2)O[C@@H]1c1ccccc1`, for which the cytotoxicity call was “inactive”.

As for `CC(C)Cn1cnc2c(N)nc3ccccc3c21.Cl`, the cytotoxicity call is “inactive”.

In the case of `C[C@@H]1CN([C@H](C)CO)C(=O)c2cccc(NC(=O)c3ccc(-c4nccs4)cc3)c2O[C@H]1CN(C)Cc1ccc(C(F)(F)F)cc1`, the cytotoxicity call is “active”.

`COCC#Cc1ccc2c(c1)O[C@H](CN(C)S(=O)(=O)c1ccc(C)cc1)[C@H](C)CN([C@H](C)CO)S2(=O)=O`: the cytotoxicity call is “inactive”.

With `C[C@H](CO)N1C[C@H](C)[C@@H](CN(C)C(=O)Nc2ccc3c(c2)OCO3)OCCCC[C@H](C)Oc2ccc(NC(=O)CCC(F)(F)F)cc2C1=O`, the cytotoxicity call is “inactive”.

On to `Cc1noc(C)c1NC(=O)Nc1ccc2c(c1)CC(=O)N([C@@H](C)CO)C[C@H](C)[C@H](CN(C)S(=O)(=O)c1ccccc1)O2`, for which the cytotoxicity call is “inactive”.

For `COCC(=O)N1C[C@@H](C)[C@@H](OC)CN(C)C(=O)c2ccc(NC(=O)Nc3ccccc3)cc2OC[C@H]1C`, the cytotoxicity call is “inactive”.

`CCN1C(=O)[C@H]2[C@@H](O)CS[C@H]2C1=O`: the cytotoxicity call was “inactive”.

For the molecule `COc1cccc(-c2ccc([C@@H](Oc3cc(-c4ccc(C[C@H](N)C(=O)O)cc4)nc(N)n3)C(F)(F)F)cc2)c1`, the cytotoxicity call is “inactive”.

With `C[C@@H]1CN([C@H](C)CO)C(=O)c2cc(NS(C)(=O)=O)ccc2O[C@@H]1CN(C)Cc1ccc2c(c1)OCO2`, the cytotoxicity call is “inactive”.

Turning to `Cc1noc(C)c1NC(=O)N(C)C[C@@H]1OCCCC[C@H](C)Oc2ccc(NC(=O)Nc3ccc4c(c3)OCO4)cc2C(=O)N([C@@H](C)CO)C[C@H]1C`, the cytotoxicity call is “inactive”.

Turning to `C[C@@H]1CN([C@@H](C)CO)C(=O)CCCn2nncc2CO[C@@H]1CN(C)C(=O)Nc1ccc(C(C)(C)C)cc1`, the cytotoxicity call was “inactive”.

In the case of `COc1ccc(-c2cnc3c(c2)C(=O)N([C@@H](C)CO)C[C@@H](C)[C@H](CN(C)C(=O)Cc2ccccn2)O3)cc1`, the cytotoxicity call was “inactive”.

Take `O=C(C[C@@H]1CC[C@@H]2[C@H](COC[C@H](O)CN2S(=O)(=O)c2ccccc2)O1)N[C@@H]1CCN(Cc2ccccc2)C1`: the cytotoxicity call was “inactive”.

For the molecule `CO[C@H]1CN(C)C(=O)c2ccc(NC(=O)NC(C)C)cc2OC[C@H](C)N(Cc2ccc(-c3ccccn3)cc2)C[C@@H]1C`, the cytotoxicity call was “inactive”.

Consider `COC(=O)N[C@H](C(=O)N1CCC[C@H]1c1nc(-c2ccc(-c3ccc(-c4c[nH]c([C@@H]5CCCN5C(=O)[C@@H](NC(=O)OC)C(C)C)n4)cc3)cc2)c[nH]1)C(C)C`, for which the cytotoxicity call was “inactive”.

Take `CC[C@@H](C)NCc1ccsc1`: the cytotoxicity call is “inactive”.

With `Cc1nn(C)cc1NC(=O)C[C@H]1CC[C@@H]2[C@H](COc3ccc(NC(=O)C4CCOCC4)cc3C(=O)N2C)O1`, the cytotoxicity call is “inactive”.

In the case of `O=C(O)[C@@H]1C[C@@H](O)CN1`, the cytotoxicity call was “inactive”.

With `C[C@@H]1CN([C@H](C)CO)C(=O)Cc2cc(NC(=O)Nc3cccc4ccccc34)ccc2O[C@@H]1CN(C)S(=O)(=O)c1cccs1`, the cytotoxicity call is “inactive”.

With `CCS(=O)(=O)Nc1ccc2c(c1)C(=O)N(C)[C@@H]1CC[C@@H](CC(=O)NCCOC)O[C@H]1CO2`, the cytotoxicity call was “inactive”.

As to `COc1ccc(CN(C)C[C@H]2OCCCC[C@H](C)Oc3ccc(NC(=O)C4CCCCC4)cc3C(=O)N([C@@H](C)CO)C[C@@H]2C)cc1`, the cytotoxicity call is “inactive”.

`O=C(C[C@H]1C[C@@H]2c3cc(NC(=O)C4CCOCC4)ccc3O[C@@H]2[C@H](CO)O1)NCc1ccc(Cl)cc1`: the cytotoxicity call was “inactive”.

For `COc1ccc(S(=O)(=O)N(C)C[C@H]2Oc3c(NC(=O)c4cc(C)nn4C)cccc3C(=O)N([C@@H](C)CO)C[C@@H]2C)cc1`, the cytotoxicity call is “inactive”.

Turning to `C[C@@H]1CN([C@@H](C)CO)C(=O)c2cc(C#Cc3ccccc3F)cnc2O[C@@H]1CN(C)C(=O)Cc1cccnc1`, the cytotoxicity call is “inactive”.

In the case of `C[C@@H]1CN([C@H](C)CO)C(=O)Cc2cc(NC(=O)Nc3cccc4ccccc34)ccc2O[C@@H]1CN(C)S(=O)(=O)c1ccc(F)cc1`, the cytotoxicity call is “inactive”.

With `CC(C)NC(=O)Nc1ccc2c(c1)C(=O)N([C@H](C)CO)C[C@@H](C)[C@H](CN(C)S(=O)(=O)c1cn(C)cn1)O2`, the cytotoxicity call is “inactive”.

As for `CCn1cc(C(=O)O)c(=O)c2cc(F)c(N3CCN(C(=S)Nc4cc(C(F)(F)F)ccc4Cl)CC3)cc21`, the cytotoxicity call is “inactive”.

As to `C[C@@H]1CN([C@@H](C)CO)C(=O)c2cccc(NS(C)(=O)=O)c2O[C@H]1CN(C)S(=O)(=O)c1cn(C)cn1`, the cytotoxicity call is “inactive”.

For `C[C@@H]1CN([C@H](C)CO)C(=O)c2cc(C#Cc3ccccn3)cnc2O[C@H]1CN(C)C(=O)CCN1CCCCC1`, the cytotoxicity call was “inactive”.

For `C[C@H]1CN([C@@H](C)CO)C(=O)c2cccc(NS(=O)(=O)c3cn(C)cn3)c2O[C@H]1CN(C)C(=O)Nc1ccc2c(c1)OCO2`, the cytotoxicity call is “inactive”.

For `Cc1noc(C)c1NC(=O)Nc1ccc2c(c1)C(=O)N([C@@H](C)CO)C[C@H](C)[C@@H](CN(C)S(=O)(=O)c1cccs1)OCCCC[C@@H](C)O2`, the cytotoxicity call is “inactive”.
